According to a collection of fitness landscapes (doi:10.1038/s41467-024-54723-y):
Over roughly 18,000 sequences, “TetR repression strength (sort-seq, GFP reporter)” has its median near 0.23; the highest 2% begin near 0.68. The list shows a part of the results.

Each sequence was assayed against TetR (class B, Tn10) (UniProt P04483) (assay: TetR repression strength (sort-seq, GFP reporter) (relative to tetO2 = 1); higher = stronger repression). Conditions: E. coli.
Procedure, shortened: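 Repression strength was calculated by subtracting the read-weighted mean bin from the top bin index plus one and dividing by the unaltered operator's value. The plasmid library was low-copy in E. coli SIG10-MAX, with eight randomized operator positions between a constitutive promoter and sfGFP and constitutive TetR. Cultures grew 5 h at 37 °C in LB containing 50 µg/mL chloramphenicol before 10^6 cells were sorted by FACS into 13 fluorescence bins, each sequenced on Illumina. Three independent transformations were averaged for members having ≥30 reads in all replicates and a CV ≤0.5.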

Sequence of UniProt P04483 (P04483 whole entry): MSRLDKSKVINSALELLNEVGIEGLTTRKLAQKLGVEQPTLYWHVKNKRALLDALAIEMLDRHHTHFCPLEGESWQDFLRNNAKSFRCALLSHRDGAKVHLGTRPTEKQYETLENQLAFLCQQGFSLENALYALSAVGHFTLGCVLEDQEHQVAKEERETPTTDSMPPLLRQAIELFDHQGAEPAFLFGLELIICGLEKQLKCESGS

Row | Sequence | TetR repression strength
1 | TCCCTCCAAGTCCCTGAGA | 0.366
2 | TCCCTTCAAGTGCGGGAGA | 0.0975
3 | TCCCATTCAGTCTTAGAGA | 0.417
4 | TCCCGTCCAGTGGGTGAGA | 0.21
5 | TCCCGGATAGTCCATGAGA | 0.194
6 | TCCCAATCAGTGTTAGAGA | 0.617
7 | TCCCTCGAAGTGAGTGAGA | 0.472
8 | TCCCCCAGAGTGCGTGAGA | 0.195
9 | TCCCTGATAGTTTTCGAGA | 0.301
10 | TCCCGTAGAGTGTCGGAGA | 0.207
11 | TCCCCACAAGTGCTCGAGA | 0.37
12 | TCCCTCGAAGTGAACGAGA | 0.187
13 | TCCCTCGCAGTTTACGAGA | 0.142
14 | TCCCCCTGAGTATGAGAGA | 0.33
15 | TCCCAACGAGTTGACGAGA | 0.256
16 | TCCCGAGGAGTGGTTGAGA | 0.222
17 | TCCCCGGGAGTGCGTGAGA | 0.279
18 | TCCCGCGCAGTCTAGGAGA | 0.0919
19 | TCCCCTTTAGTTCAAGAGA | 0.39
20 | TCCCCCAGAGTAATAGAGA | 0.528
21 | TCCCGTTTAGTATTCGAGA | 0.341
22 | TCCCCAGTAGTACGAGAGA | 0.318
23 | TCCCCATGAGTGAGCGAGA | 0.169
24 | TCCCGGTTAGTGGAGGAGA | 0.169
25 | TCCCTACCAGTGATAGAGA | 0.94
26 | TCCCACACAGTTGTCGAGA | 0.222

Row | Sequence | TetR repression strength
27 | TCCCTATAAGTCGTCGAGA | 0.307
28 | TCCCAGGAAGTTTCAGAGA | 0.104
29 | TCCCATACAGTAACCGAGA | 0.199
30 | TCCCGCTCAGTACCCGAGA | 0.195
31 | TCCCGCACAGTATTCGAGA | 0.267
32 | TCCCTGAGAGTACAAGAGA | 0.322
33 | TCCCCGGGAGTTATGGAGA | 0.274
34 | TCCCCACAAGTCGCAGAGA | 0.18
35 | TCCCGAATAGTGTTGGAGA | 0.203
36 | TCCCGGAGAGTAATAGAGA | 0.242
37 | TCCCCGTGAGTTTATGAGA | 0.426
38 | TCCCGTCCAGTAGCAGAGA | 0.338
39 | TCCCGAACAGTGCACGAGA | 0.169
40 | TCCCAATGAGTACCGGAGA | 0.195
41 | TCCCGCAGAGTGTGTGAGA | 0.0673
42 | TCCCGAGGAGTAGTGGAGA | 0.247
43 | TCCCAAAGAGTGGGCGAGA | 0.0498
44 | TCCCCTCGAGTAGAAGAGA | 0.28
45 | TCCCTCGGAGTGTCTGAGA | 0.173
46 | TCCCGCACAGTAAGTGAGA | 0.229
47 | TCCCTGCCAGTCTAGGAGA | 0.415
48 | TCCCTCGTAGTGGTGGAGA | 0.176
49 | TCCCTACGAGTAAGGGAGA | 0.178
50 | TCCCCTTTAGTCGTGGAGA | 0.155
51 | TCCCTTTCAGTGCTGGAGA | 0.363
52 | TCCCGGCGAGTAGGAGAGA | 0.291

Row | Sequence | TetR repression strength
53 | TCCCTTGCAGTTTCGGAGA | 0.461
54 | TCCCCCTTAGTACCTGAGA | 0.315
55 | TCCCTGTCAGTAATTGAGA | 0.419
56 | TCCCGGCGAGTAGACGAGA | 1.03
57 | TCCCTATTAGTTGTCGAGA | 0.278
58 | TCCCTGTCAGTGTATGAGA | 0.395
59 | TCCCTAGGAGTTGGTGAGA | 0.302
60 | TCCCGAATAGTGGTAGAGA | 0.389
61 | TCCCGCAGAGTACGGGAGA | 0.371
62 | TCCCTAAAAGTGGGAGAGA | 0.203
63 | TCCCATGGAGTCTATGAGA | 0.139
64 | TCCCATCGAGTGTACGAGA | 0.43
65 | TCCCAATAAGTGTGTGAGA | 0.369
66 | TCCCACATAGTCGCGGAGA | 0.173
67 | TCCCGACGAGTGCGCGAGA | 0.0423
68 | TCCCTGTAAGTGATGGAGA | 0.226
69 | TCCCGGGGAGTGCAGGAGA | 0.176
70 | TCCCATAGAGTTCGGGAGA | 0.161
71 | TCCCGAGCAGTGATCGAGA | 0.708
72 | TCCCGACTAGTGTAAGAGA | 0.311
73 | TCCCTTTGAGTGGATGAGA | 0.185
74 | TCCCTTGGAGTGCCGGAGA | 0.477
75 | TCCCCTTTAGTGGTGGAGA | 0.326
76 | TCCCAATGAGTAACAGAGA | 0.19
77 | TCCCCAACAGTCTTGGAGA | 0.692
78 | TCCCCGTTAGTAGGCGAGA | 0.153

Row | Sequence | TetR repression strength
79 | TCCCCTTAAGTCAGTGAGA | 0.252
80 | TCCCTTATAGTGCAGGAGA | 0.0183
81 | TCCCATTTAGTGCAAGAGA | 0.382
82 | TCCCTAGCAGTGACGGAGA | 0.2
83 | TCCCTGGCAGTGTGGGAGA | 0.0722
84 | TCCCTATGAGTCGTAGAGA | 0.147
85 | TCCCTAGTAGTACTCGAGA | 0.224
86 | TCCCTAGGAGTATATGAGA | 0.0303
87 | TCCCACCGAGTCGCAGAGA | 0.397
88 | TCCCTATGAGTTATAGAGA | 0.439
89 | TCCCTGTTAGTAAGGGAGA | 0.355
90 | TCCCCGATAGTGTGAGAGA | 0.127
91 | TCCCATCTAGTTAAAGAGA | 0.415
92 | TCCCTCTGAGTGCAGGAGA | 0.166
93 | TCCCACAGAGTCACAGAGA | 0.174
94 | TCCCGGGGAGTCAAGGAGA | 0.21
95 | TCCCGTGCAGTCGCCGAGA | 0.207
96 | TCCCCCGGAGTGCTCGAGA | 0.621
97 | TCCCTACCAGTTTGGGAGA | 0.0908
98 | TCCCTCTGAGTGAGGGAGA | 0.145
99 | TCCCTGTCAGTCTTGGAGA | 0.222
100 | TCCCTCAGAGTAAAGGAGA | 0.218
101 | TCCCCGCTAGTATGGGAGA | 0.297
102 | TCCCGAGAAGTTGAGGAGA | 0.176
